In patent US20240294640A1 (published 2024):

Columns and labels:
[1] = molecular target: T1, CD3 naturally expressed on Jurkat cells (human, UniProt P07766); test: FACS
[2] = molecular target: T1, CD3 naturally expressed on Jurkat cells; test: FACS; remark: listed apart in the source
[3] = molecular target: T1, CD3 naturally expressed on Jurkat cells; test: FACS binding on Jurkat cells

T1 sequence (P07766 23-207): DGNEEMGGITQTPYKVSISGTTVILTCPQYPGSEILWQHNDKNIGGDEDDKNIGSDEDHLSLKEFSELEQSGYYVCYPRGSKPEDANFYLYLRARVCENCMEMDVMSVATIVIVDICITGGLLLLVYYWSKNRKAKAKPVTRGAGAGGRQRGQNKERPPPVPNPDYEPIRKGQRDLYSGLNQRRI

Row | EC50 [1] | EC50 [2] | EC50 [3] | Binder
1 | 0.208 nM | – | – | QP3685, hSP34 mutant VH-VL-FC (Fc fusion) scFv: EVQLLESGGGLVQPGGSLKLSCAASGFTFNTYAMNWVRQAPGKGLEWVARIRSKYNNYETYYADSVKDRFTISRDDSKNTAYLQMNNLKTEDTAVYYCVRHGNFGNSYVSWFAYWGQGTLVTVSSGGGGSGGGGSGGGGSELVVTQEPSLTVSPGGTVTLTCRSSTGAVTTSNYANWVQQKPGQAPRGLIGGTNLRAPGTPARFSGSLLGGKAALTLSGVQPEDEAEYYCALWRSGGWVFGGGTKLTVL[skipping human IgG1 Fc with changes]
2 | – | ~1080 nM | ~1080 nM | QP728 (Fc fusion) DIVMTQSPDSLAVSLGERATINCKSSQSLLNSGNQKNYLAWYQQKPGQPPKLLIYGASTRESGVPDRFTGSGSGTDFTLTISSLQAEDVAVYYCQNDHSYPFTFGQGTKLEIKGGGGSGGGGSGGGGSQVQLVQSGAEVKKPGASVKVSCKASGYTFTSYIMHWVRQAPGQGLEWMGYINPYNDGTKYNEKFKGRVTMTRDTSTSTVYMELSSLRSEDTAVYYCARLGFTTRNAMDYWGQGTLVTVSSGGGGSGGGGSGGGGS[skipping about 120 residues]SGGGSGGGGSGGGGSGGGGSGGGSGGITCPPPMSVEHADIWVKSYSLYSRERYICNSGFKRKAGTCSLTECVLNKATNVAHWTTPSLKCIRGGGGS[skipping human IgG4 Fc with S228P (EU numbers)]
